Experimental data reported in PubChem BioAssay AID743279 (National Center for Advancing Translational Sciences (NCATS), 2014).
Several values for one entry are separate records, joined by “and”; a condition that tells them apart may be missing. Identical values can stand only once. Among all 360,000 compounds or so, about 17,000 (4.7%) were called active. This list was built around the results that the source calls inconclusive (neither active nor inactive); the mix of calls is not that of the screen. No stated cut-off is given here; in the data, active means activity change below about -50%; inconclusive means mostly about -30% to -49%; inactive means weaker than that.

assay: qHTS for Inhibitors of Inflammasome Signaling: IL-1-beta AlphaLISA Primary Screen; conditions: THP-1 LPS/ATP IL-1B secretion, 16 h; at 57.5 µM, stronger effect = lower value
Summary of the method: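 Secreted IL-1B measured by AlphaLISA bead assay after 16 h compound exposure of THP-1 cells; compounds (final up to 57.5 uM) added 1 h before LPS (250 ng/mL) and ATP (1.25 mM) stimulation; lower signal means less secretion.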
On the % scale 0 is the no-effect control and ±100 the full control effect.

Structure (SMILES) | activity change
O=C(NCc1cccc(Cl)c1)c1ccc(S(=O)(=O)N2CCCCC2)cc1 | inactive: -3.14%
CCc1ccc(-n2cnc3cc(C(=O)NCC(OC)OC)ccc32)cc1 | inconclusive: -34.6%
C[C@H]1CN([C@@H](C)CO)S(=O)(=O)c2ccc(Br)cc2O[C@H]1CN(C)C(=O)NC1CCCCC1 | inconclusive: -35.1%
CCN1CCN(C(c2ccccn2)c2c(NC(=O)c3ccccc3)sc(C)c2C)CC1 (stereo not given) | inconclusive: -33.8%
O=C(COc1cccc2ccccc12)N/N=C/C=C/c1ccccc1 | inconclusive: -30.3%
Cc1cc(C)cc(NS(=O)(=O)c2ccc(NC(=S)NC(=O)c3cccs3)cc2)c1 | inconclusive: -42.6%
CCOc1ccc(NCc2nnc(SCc3ccc(Cl)cc3)n2-c2ccccc2)cc1 | inconclusive: -46%
CCC(CO)Oc1cc(NC(=O)c2cccc(C)c2)c2ncn(C(C)C)c2c1 (stereo not given) | inconclusive: -36.2%
O=C(CSc1ncnc2sc(-c3ccccc3)cc12)NC1CCS(=O)(=O)C1 (stereo not given) | active: -65.9%
COc1ccc(S(=O)(=O)N2CCC(C(=O)N3CCc4ccccc4C3)CC2)cc1Cl | inconclusive: -32.1%
Cc1cccc(NC(=O)c2ccc(OCc3c(C)noc3C)cc2)n1 | inactive: 52.8%
COc1ccccc1OCC(=O)N(Cc1nc(-c2ccccc2)no1)C(C)C | active: -59.2%
COc1ccc(C(=O)Nc2ccc(Cl)cn2)cc1Cl | inconclusive: -44.1%
Cc1ccc(C)c(N2CCN(C(=O)C3CCN(c4nnc(N5CCCC5=O)s4)CC3)CC2)c1 | inconclusive: -34.3%
CCC(CO)Nc1ccn2nc(-c3cc(OC)c(OC)c(OC)c3)cc2n1 (stereo not given) | inconclusive: -34.7%
COc1ccccc1NC(=O)Nc1ccc(C(=O)N2CCCCC2)cc1 | inconclusive: -33.5%
Cc1cc(Cl)nc(-c2ccccc2O)n1 | inconclusive: -45.7%
Nc1nc2ccccc2n1CCOc1ccc(F)cc1 | active: -51%
CCC1(C)Cc2ccccc2-c2nc(NCCO)n(-c3ccc(C)cc3)c(=O)c21 (stereo not given) | inconclusive: -49.3%
O=C(COC(=O)CNS(=O)(=O)c1ccc(Br)cc1Cl)Nc1ccc(N2CCOCC2)cc1 | inactive: 0%
CC(=O)c1ccc(OCC(=O)NCC2(N3CCCCC3)CCCCC2)cc1 | inactive: -5.97%
Cn1c(SCC(=O)Nc2cccc(NC(=O)c3cccs3)c2)nnc1-c1ccncc1 | inconclusive: -33.2%

Structure (SMILES) | activity change
CCOc1ccccc1-n1nnnc1SCC(=O)N(C)C1CCS(=O)(=O)C1 (stereo not given) | inactive: 1.49%
O=C(Nc1ccc(OC(F)(F)F)cc1)C1CCCCN1S(=O)(=O)c1ccccc1 (stereo not given) | inconclusive: -36.2%
Cc1cccc(CSc2nc3sc(C)c(C)c3c(=O)n2Cc2ccco2)c1 | inconclusive: -33.3%
Cc1c(NC(=O)COC(=O)CCC(=O)c2ccc(Cl)cc2)c(=O)n(-c2ccccc2)n1C | inactive: 20.8%
O=C(/C=C/c1cccc([N+](=O)[O-])c1)N1CCN(Cc2ccccc2)CC1 | inconclusive: -38%
COc1ccc(-c2ccc(C(=O)NCc3ccc(N4CCN(C)CC4)cc3)c3occc23)c(C)c1 | inconclusive: -36.6%
COC(=O)c1ccccc1NC(=O)NC1CCC(C)CC1 (stereo not given) | inconclusive: -30.5%
Cn1c(SCc2ccccc2)nnc1-c1cccs1 | inconclusive: -30.9%
CCOc1cc(/C=N/N=C(N)N)ccc1OCc1ccc(Cl)cc1 | active: -108%
Cc1c(C)[n+](=O)c(C)c(C)n1[O-] | inactive: 16%
COc1ccc(CC(C)NCC(O)c2ccc(O)c(NC=O)c2)cc1 (stereo not given) | inconclusive: -30.2% and inconclusive: -39.9%
COCCNC(=O)COc1cc(=O)n(C)c2ccccc12 | inactive: -17.6%
CCCc1cc(N2CCC(C(N)=O)CC2)nc(-c2ccccc2)n1 | inconclusive: -31.6%
COCCN(C(=O)CSc1ncc(C(F)(F)F)cc1Cl)c1c(N)n(Cc2ccccc2)c(=O)[nH]c1=O | inactive: -9.99%
COc1ccc(-n2c(=O)c3c4c(sc3n(CC(=O)NC3CCCC3)c2=O)CCCC4)c(OC)c1 | inconclusive: -34.8%
N#CC(C#N)=C1c2cc(S(=O)(=O)NCCO)ccc2-c2ccc(S(=O)(=O)NCCO)cc21 | inconclusive: -42.4%
O=C(CSc1ccc([N+](=O)[O-])cc1)Nc1cccc(S(=O)(=O)N2CCOCC2)c1 | active: -67.5%
Cc1nn(-c2ccccc2)c2nc(N)c(C#N)c(-c3ccc(F)cc3)c12 | inconclusive: -41.5%
CCn1c(O)c(N=Nc2ccc3ccccc3n2)c2ccccc21 | inconclusive: -35.7%
COc1cccc(CNC(=S)Nc2ccc3c(c2)c(=O)n(C)n3C)c1 | inactive: -6.89%
COc1cc(/C=N/NC(=O)c2nc(C)cc(C)n2)ccc1O | inactive: -0.599%
Cc1c(C(=O)Nc2ccccc2)cnn1-c1ccccc1 | inconclusive: -33%

Structure (SMILES) | activity change
Cc1cccc(NS(=O)(=O)c2ccc(C(=O)NCC3(N4CCCCC4)CCCCC3)cc2)c1C | active: -52.6%
O=C(CN1CCC(NC(=O)Nc2ccccc2)CC1)Nc1cccc([N+](=O)[O-])c1 | inconclusive: -44.5%
CCN1CCN(Cc2ccc(NC(=O)c3ccc(C)c(NC(=O)c4nccnc4N)c3)cc2C(F)(F)F)CC1 | active: -92.7%
Cc1occc1-c1nnc(SCC(=O)Nc2ccc(F)cc2)n1Cc1ccccc1 | active: -80%
CCn1c(=N)n(CCOc2ccc(OC)cc2)c2ccccc21 | inconclusive: -31%
Cc1c(C)c2c(OCC(=O)NCc3ccccn3)cc3c(c2oc1=O)CCC(C)(C)O3 | inconclusive: -38.4%
COc1cc(NC(=O)CN2C(=O)NC(C)(c3ccc4ccccc4c3)C2=O)c(C)cc1[N+](=O)[O-] (stereo not given) | inconclusive: -30.8%
CON(C)S(=O)(=O)c1ccc2c(c1)N(Cc1ccc(C)cc1)C(=O)C1CCCN21 (stereo not given) | inactive: -12.2%
CCCCN(C)CC(O)Cn1cc(/C=C/C(=O)c2ccc(C)cc2)c2ccccc21 (stereo not given) | inconclusive: -46.2%
CN(C)c1cccc(C(=O)Nc2nc3ccccc3[nH]2)c1 | inconclusive: -33%
Cc1ccc(-n2c(SCC(=O)NNC(=S)Nc3ccccc3)nc3ccccc3c2=O)cc1 | inactive: 10.5%
O=C(CN1C(=O)CCC1=O)NCC12CC3CC(CC(C3)C1)C2 | inconclusive: -38.7%
O=C(NC(=S)Nc1ccc(CN2CCOCC2)cc1)c1cccc(F)c1 | inactive: -11.1%
CCc1ccc(N2C(=O)Nc3ccccc3C2(O)C(=O)N2CCN(c3ccccn3)CC2)cc1 (stereo not given) | inconclusive: -32.2%
Brc1ccccc1-c1nnc2sc(-c3ccc4c(c3)OCCO4)nn12 | inconclusive: -48.2%
C=C(C)C(=O)Nc1cccc(C2=NOC3(C2)C[C@@H](C(N)=O)N(C(=O)CC(c2ccccc2)c2ccccc2)C3)c1 (stereo not given in full) | inactive: -22.1%
COc1ccccc1-c1nnc(NC(=O)C(C)SC2=NCCS2)s1 (stereo not given) | inconclusive: -32.5%
CC(C)(C)c1ccc(C(=O)OCC(=O)N2CCC(c3ccccc3)=N2)cc1 | inconclusive: -37.7%
COc1ccc(OC)c(-n2c(=O)c3ccccc3c3ccccc3c2=O)c1 | active: -89.3%
Cc1ccc(O)c(NC(=O)c2cc(-c3ccccc3Cl)on2)c1 | inconclusive: -36.1%
Cc1cc(C)nc(SCC(=O)Nc2ccnc3ccccc23)n1 | inconclusive: -40.2%
CS(=O)(=O)Nc1cccc(C2=NN(C(=O)c3cccc([N+](=O)[O-])c3)C(c3cccs3)C2)c1 (stereo not given) | inconclusive: -33.1%

Structure (SMILES) | activity change
COC1=CC(=O)OC(c2ccc(C(F)(F)F)cc2)C1 (stereo not given) | inconclusive: -40.7%
CN(C)/C=C1/C=C(c2ccccc2)OC1=O | active: -53.3%
CCCCCn1nc(C(=O)OCC(=O)c2c(N)n(C)c(=O)n(C)c2=O)c2ccccc2c1=O | active: -52.5%
COc1cc(S(=O)(=O)Nc2ccc(C)cc2)ccc1N=Cc1c(C)[nH]n(-c2ccccc2)c1=O | inconclusive: -32.7%
O=S1(=O)CC(N2CCN(CCO)CC2)CN1Cc1ccc(F)cc1 (stereo not given) | inactive: 10.7%
Fc1ccc(-c2cc3nc4c(c(N5CCOCC5)n3n2)CCCC4)cc1 | inconclusive: -33.9%
CCN(CC(=O)Nc1ccccc1OC)C(=O)c1ccc(NS(=O)(=O)c2ccc(C(C)=O)cc2)cc1 | inactive: -2.45%
COc1ccc(CNC(=O)Cn2cc(C)c(=O)[nH]c2=O)cc1 | inactive: -12.9%
Cc1cccc(C)c1N(CC(=O)N1CCCC1)S(C)(=O)=O | inactive: 6.36%
O=C(Nc1ccc(Br)cc1F)c1ccncc1 | inconclusive: -36.9%
C=CCNC(=O)c1ccc(C(=O)c2ccccc2)cc1 | inconclusive: -31.2%
COc1ccccc1N1CCN(C(=O)c2ccc3c(Cl)c4c(nc3c2)CCCC4)CC1 | active: -87.1%
CNc1nc2c(C)cccn2c(=O)c1C=Nc1ccc(OC)cc1 | inconclusive: -33.5%
O=C(NCCCc1ccccc1)C1CCN(S(=O)(=O)c2ccc(F)cc2)CC1 | inconclusive: -39.5%
COc1cnc(-c2ccccn2)nc1N(C)C | active: -58%
O=C(OCC(=O)N1CCc2ccccc2C1)c1ccc(F)cc1Cl | inactive: -6.99%
O=C(NCc1cn(-c2ccccc2)nc1-c1ccccc1)c1ccc([N+](=O)[O-])cc1 | inconclusive: -36.3%
Cc1cccc(C(=O)N[C@H](C(=O)Nc2ncc(C)s2)C(C)C)c1 | inconclusive: -37.9%
Cc1ccc(S(=O)(=O)N2CCCCC2)cc1NC(=O)c1cc(F)c(F)c(F)c1F | active: -94.2%
